The results in this text go back to ChEMBL document CHEMBL4888484, “Replenishing the malaria drug discovery pipeline: Screening and hit evaluation of the MMV Hit Generation Library 1 (HGL1) against asexual blood stage Plasmodium falciparum ,using a nano luciferase reporter read-out” (2022).

SMILES strings stand for the structures. Out of some 150,000 compounds screened, about 540 (0.36%) showed an effect of 50% or more. Some of the results follow.

In the assay the test system is Plasmodium falciparum. The assay can be described thus: Primary screen in NF54 nanoGlo assay, in single point, at 2uM, 72h; a lower Z score goes with more inhibition. The class given is functional, Erythrocyte. The following applies: timepoint 72 hour.
Consider `CC(=O)NC(C)(C)C(=O)Nc1cc(-c2ccccc2C)nn1C`, for which the % Inhibition (as a rule, the change of the read-out against control, counted positive when it falls) is given as 2% and the Z score was -0.24.
As for `CC(C)CN(C)[C@H]1CN(C(=O)c2[nH]cnc2-c2ccccc2)C[C@@H]1O`, the “% Inhibition” value is reported as 0% and the Z score was -0.06.
For the compound `Cc1noc(C)c1CCC(=O)N1CCC(c2nnc(C(C)C)o2)CC1`, the “% Inhibition” value is 9% and the Z score is reported as -1.13.
For the compound `Cc1cccc2[nH]c([C@H]3CCCN(C(=O)c4ccc5cc[nH]c5c4)C3)nc12`, the “% Inhibition” value is reported as -9% and the Z score is 1.82.
Consider `CC(C)O[C@@H]1CCN(C[C@H](O)c2ccc(C(F)(F)F)cc2)C1`, for which the “% Inhibition” value is 45% and the Z score was -3.9.
In the case of `Cc1ccnc([C@H]2CCN(C(=O)c3cc(C)ccc3F)C2)c1`, the “% Inhibition” value is -16% and the Z score is 3.21.
Take `COC(=O)c1cncc(C(=O)NCCC2CC3CCC2C3)c1` (stereo unspecified): the “% Inhibition” value is -11% and the Z score was 1.13.
As to `CC(=O)c1cccc(NC(=O)C2CCN(C(=O)c3ccc4c(c3)nnn4C3CCCC3)CC2)c1`, the “% Inhibition” value is on record as -20% and the Z score is listed as 3.59.
With `N#Cc1ccccc1C(=O)N1CCN(C2CCCCC2)C[C@H](O)C1`, the “% Inhibition” value is -20% and the Z score was determined as 1.76.
Turning to `Cc1nnsc1C(=O)N(C)C1CCN(Cc2ccccc2)CC1C` (stereo unspecified), the “% Inhibition” value is on record as 2% and the Z score is -0.26.
As to `COc1ccnc(C(=O)Nc2cccc(-c3cnc[nH]3)c2)c1`, the “% Inhibition” value is listed as -4% and the Z score is given as 0.45.
Take `COC(=O)[C@@H]1CS(=O)(=O)CCN1C(=O)c1ccc(Cl)cc1`: the “% Inhibition” value was -22% and the Z score is on record as 2.24.
With `CN(c1nccnc1C#N)[C@H]1CCCN(Cc2ccccc2)C1`, the “% Inhibition” value was 0% and the Z score is 0.03.
In the case of `CCc1nc(C2CC2)nc(N2CCN(C(=O)c3ccco3)CC2)c1Cc1cc(C)ccc1C`, the “% Inhibition” value is 5% and the Z score was -0.81.
Regarding `O=C(NCc1nc2c(s1)CCCC2)c1cn(C[C@H]2CCCO2)nn1`, the “% Inhibition” value is on record as -10% and the Z score was determined as 1.33.
On to `COc1ccccc1C(C)CNC(=O)NC1CCC(N(C)C)C1` (stereo unspecified), for which the “% Inhibition” value is reported as -12% and the Z score turned out to be 1.6.
Consider `Cc1cc(C)n(C)c(=O)c1C(=O)N1CC[C@@](O)(C2CCOCC2)[C@H](C)C1`, for which the “% Inhibition” value is given as -23% and the Z score came out at 2.7.
Take `O=C1CCc2cc(Cl)c(S(=O)(=O)N3CCC(C(=O)Nc4ccc(Cl)cn4)CC3)cc2N1`: the “% Inhibition” value is recorded as -3% and the Z score is 0.54.
For `CCCc1nn(-c2cccc(F)c2)c(N2CCN(CC)CC2)c1CN(CCC)Cc1ccccc1F`, the “% Inhibition” value is given as -18% and the Z score is on record as 1.55.
`C[C@@H](CCNC(=O)OC(C)(C)C)NC(=O)c1cccnc1`: the “% Inhibition” value stood at 13% and the Z score is -1.57.
Take `C[C@@H](CNC(=O)Cc1cccc(O)c1)COCc1ccccc1`: the “% Inhibition” value is 10% and the Z score is reported as -1.91.
With `CCOc1c(Cl)cccc1Cc1nc(CC(=O)NC)no1`, the “% Inhibition” value is listed as -9% and the Z score is 1.07.
Consider `Cn1nnc2c(=O)n(Cc3ccccn3)cnc21`, for which the “% Inhibition” value is -1% and the Z score came to 0.22.
For `CCc1noc(C)c1C(=O)N(Cc1ccccc1)c1c(N)n(CCOC)c(=O)[nH]c1=O` the same measures were -3% and 0.3.
On to `CN(C)c1cccc(Oc2nnnn2[C@H]2CO[C@H]3[C@@H]2OC[C@@H]3NS(=O)(=O)c2cccs2)c1`, for which the “% Inhibition” value was -3% and the Z score was 0.41.
In the case of `COc1ccc(CNS(=O)(=O)c2cc3n(c2)CCCN(C(C)C)C3=O)cc1OC`, the “% Inhibition” value is given as -18% and the Z score was 2.06.
Take `CC1(C)COCCN1CCNC(=O)N1CC=C(c2ccccc2F)CC1`: the “% Inhibition” value is -8% and the Z score came to 1.1.
For the compound `Cc1cc(Cl)ccc1-c1cccc(C(=O)NCC2(O)CCN(C)CC2)c1`, the “% Inhibition” value is reported as -7% and the Z score is 0.86.
As to `CCn1nc(CO)c2c1CCN(C(=O)C[C@H]1CCOC1)C2`, the “% Inhibition” value was -3% and the Z score came out at 0.6.
The like results for `O=C(O)C[C@@H]1N=C(O)N(Cc2ccccc2)C1=O` were, in that order, 7% and -0.95.
Turning to `CC1CN(C(=O)Nc2ccnn2C2CCS(=O)(=O)C2)c2ccccc21` (stereo unspecified), the “% Inhibition” value came out at 6% and the Z score is -1.01.
Regarding `COc1ncnc2c1CN(C(=O)NC1CC1C1CCCCC1)CC2` (stereo unspecified), the “% Inhibition” value is on record as -17% and the Z score amounted to 2.21.
Regarding `Cc1occc1CNC(=O)c1ccc(CNC(=O)OC(C)(C)C)o1`, the “% Inhibition” value is given as -8% and the Z score was found to be 1.46.
Turning to `Cc1nnsc1C(=O)NCc1cnc(CC(C)C)s1`, the “% Inhibition” value was -5% and the Z score stood at 0.74.
For `CCCc1nc(CN2CC(n3cccn3)C2)cs1` the same measures were 8% and -1.58.
In the case of `CC(=O)c1cccc(NC(=O)CN(C(C)C)C2CCOCC2)c1`, the “% Inhibition” value was -1% and the Z score stood at 0.11.
`COC(=O)C[C@H]1CN(Cc2ccc(-c3ccncc3)cc2F)CCO1`: the “% Inhibition” value was -7% and the Z score worked out at 0.94.
On to `O=C1C[C@@H](c2ccccc2)N(C(=O)C#Cc2ccccc2)CCN1`, for which the “% Inhibition” value is given as -8% and the Z score is 0.95.
With `Cc1cc(Cl)cc2c(N3C[C@@H]4C(=O)NC[C@]4(C(=O)O)C3)ccnc12`, the “% Inhibition” value is on record as -6% and the Z score came out at 1.26.
As for `CC(C)=CC1C(C(=O)N2CCC(CC(N)=O)CC2)C1(C)C` (stereo unspecified), the “% Inhibition” value is recorded as -10% and the Z score was determined as 1.34.
For `CCN(Cc1ccoc1)Cc1nnc(-c2ccc(F)cc2)o1` the same measures were -13% and 1.6.
With `CCN(CCN1C(=O)NC(C)(C)C1=O)Cc1cccc(Cl)c1`, the “% Inhibition” value is -20% and the Z score worked out at 3.25.
As for `CCOC(=O)[C@H]1CCCN1Cc1nnc(-c2ccc(Cl)cc2)n1C`, the “% Inhibition” value was -6% and the Z score amounted to 0.57.
The like results for `Cc1cnn(CCC(=O)N[C@@H]2COCC[C@@H]2Oc2ccc(C)nc2)c1` were, in that order, -1% and 0.12.
For the compound `O=C(C1CCCC1)N1CCN(Cc2nnn3c2CO[C@H](c2ccccc2)C3)CC1`, the “% Inhibition” value is reported as -3% and the Z score is 0.34.
Take `CCN1CCN(C(=O)c2ccc(CN3CCN(C(C)C)C(=O)C3=O)cc2)CC1`: the “% Inhibition” value turned out to be 2% and the Z score was -0.37.
Take `COc1ccc(-n2nc(C(=O)N3CCN(c4ccccc4)CC3)c(=O)cc2OC)cc1`: the “% Inhibition” value is listed as 32% and the Z score is reported as -0.28.
Take `Cc1ccccc1[C@H]1CCCN(Cc2ccnc(C(C)C)n2)C1`: the “% Inhibition” value is recorded as 2% and the Z score is -0.43.
As to `CCCN(CC(=O)N1CCn2cccc2[C@H]1c1ccccc1F)C(=O)c1ccc(CC)cc1`, the “% Inhibition” value was -2% and the Z score is on record as 0.18.
As for `Cc1csc(NC(=O)Cc2cnn(-c3ccccc3)c2)n1`, the “% Inhibition” value is given as -3% and the Z score amounted to 0.32.
For `CN(Cc1ccncc1)Cc1ncccc1C(F)(F)F`, the “% Inhibition” value is reported as -2% and the Z score was determined as 0.18.
Regarding `Cc1cnc(C(=O)N(c2ccccc2)[C@H]2CCOC2)cn1`, the “% Inhibition” value worked out at 32% and the Z score is listed as -3.58.
`CCN(C(=O)c1cc(S(=O)(=O)N(C)Cc2ccccc2)ccc1Cl)[C@H]1CCS(=O)(=O)C1`: the “% Inhibition” value was -1% and the Z score was found to be 0.08.
